Laboratory results taken from PubChem BioAssay AID1645887 (National Center for Advancing Translational Sciences (NCATS), 2021).
Several values for one entry are separate records, joined by “and”; a condition that tells them apart may be missing. Identical values can stand only once. The whole screen tested about 16,000 compounds, of which about 40 (0.2%) were called active. About 1% were inconclusive and are not listed. The call rests on the fitted dose curve; in most records, active means well fitted activation curve with a large enough effect; inconclusive means small, poorly fitted or top-dose-only effect, or another doubt; inactive means no such curve, though single readings can be large or run the other way. Some of the results follow. Residues, ends and D or L forms follow the SMILES beside them. *: point of attachment. Cbz = O=C(OCc1ccccc1)*

molecular target: Rap guanine nucleotide exchange factor 4 (Homo sapiens) (UniProt Q8WZA2); test: Validation qHTS for agonist of cAMP-regulated guanine nucleotide exchange factor 4 (EPAC2); details: EPAC2 Rap1B BODIPY-GDP exchange, fluorescence; activation: active compounds read high;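 further: exchange makes BODIPY-GDP fluorescence drop when released from Rap1B; series mostly up to about 150 µM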
Summary of the method: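 Fluorescent exchange assay: 100 nM EPAC2 with 250 nM RAP1B-BODIPY-GDP and 50 uM GDP; compound added, 5 min at room temperature, then read (ex 480/em 540 nm) every 5 min for 30 min. Normalized to 6.5 mM cAMP agonist control.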
On the % scale 0 is the no-effect control and ±100 the full control effect.

Sequence of UniProt Q8WZA2 (Q8WZA2 whole entry, looked up): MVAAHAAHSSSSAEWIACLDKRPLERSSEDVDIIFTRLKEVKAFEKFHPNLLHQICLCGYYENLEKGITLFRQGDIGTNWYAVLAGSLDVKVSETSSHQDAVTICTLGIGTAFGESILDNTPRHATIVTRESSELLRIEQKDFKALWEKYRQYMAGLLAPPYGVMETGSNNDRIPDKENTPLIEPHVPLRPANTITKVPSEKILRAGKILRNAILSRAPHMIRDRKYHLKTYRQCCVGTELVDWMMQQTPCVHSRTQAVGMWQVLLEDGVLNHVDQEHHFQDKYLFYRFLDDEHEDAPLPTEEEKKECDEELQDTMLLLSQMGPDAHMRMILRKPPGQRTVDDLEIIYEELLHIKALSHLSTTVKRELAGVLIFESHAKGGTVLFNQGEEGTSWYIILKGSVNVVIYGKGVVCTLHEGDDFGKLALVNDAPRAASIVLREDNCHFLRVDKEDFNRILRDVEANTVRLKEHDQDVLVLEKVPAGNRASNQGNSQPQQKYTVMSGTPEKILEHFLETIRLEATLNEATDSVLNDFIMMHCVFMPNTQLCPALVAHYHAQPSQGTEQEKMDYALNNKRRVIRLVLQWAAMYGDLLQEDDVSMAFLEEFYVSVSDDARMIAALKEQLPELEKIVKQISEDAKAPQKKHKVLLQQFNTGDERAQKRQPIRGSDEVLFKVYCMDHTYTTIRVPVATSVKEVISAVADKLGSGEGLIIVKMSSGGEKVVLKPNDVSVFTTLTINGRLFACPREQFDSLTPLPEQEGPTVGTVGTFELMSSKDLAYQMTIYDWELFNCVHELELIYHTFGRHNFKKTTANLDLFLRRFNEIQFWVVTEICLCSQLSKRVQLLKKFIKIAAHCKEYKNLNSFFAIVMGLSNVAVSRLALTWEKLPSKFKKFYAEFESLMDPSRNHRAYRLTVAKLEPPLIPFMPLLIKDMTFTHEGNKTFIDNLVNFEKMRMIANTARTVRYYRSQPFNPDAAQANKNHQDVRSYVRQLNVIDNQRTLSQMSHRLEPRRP

activation, inactive:
O=C(NCc1nnc2n1CCN(Cc1cc3c(cc1Cl)OCO3)CC2)C1CCOC1 (stereo unspecified) -13.2%, O=c1c(-c2cc(F)cc(F)c2)nc2cnc(Nc3ccccc3)nc2n1C[C@H]1CCCO1 -11.6%, CN1[C@@H]2CC(OC(=O)[C@H](CO)c3ccccc3)C[C@@H]1[C@H]1O[C@H]12 (stereo partly specified) -17.4%, COc1ccc(OC)c(CN2CCC3(CCC(CNC(=O)c4ccco4)O3)CC2)c1 (stereo unspecified) -3.79%, COCC(=O)N1CCC2(CCCN(c3ncccn3)C2)CC1 -6.18%, C=C1[C@@H]2CC[C@@H](C2)C1(C)C -40.6%, Nc1ncn(C2OC(CO)C(O)C2O)c(=O)n1 (stereo unspecified) -8.91%, COC1[C@@H](O[C@@H]2O[C@H](C)[C@@H](O[C@H]3C[C@@](C)(O)[C@H](OC(=O)CC(C)C)[C@H](C)O3)[C@H](N(C)C)[C@H]2O)[C@@H](CC=O)C[C@@H](C)[C@@H](O)/C=C/C=C/C[C@@H](C)OC(=O)C[C@H]1OC(C)=O (stereo partly specified) -4.09%, OC[C@H]1O[C@H](n2cnc3c(N[C@H]4CCC[C@@H]4O)ncnc32)[C@H](O)[C@@H]1O -12.4%, COc1ccc(NC(=O)N2CCCC3(CCN(C(=O)c4cccc(F)c4)CC3)C2)cc1 2.11%, CC(C)(C)NC[C@H](O)COc1cccc2c1CCCC2=O -36.5%, CCNc1ncc2nc(-c3ccc(Cl)cc3)c(=O)n(-c3ccccc3)c2n1 15.8%, C[N+](C)(C)CCOC(N)=O 20.5% and -19.1% and -12.3%, CCc1nc2cc(C(=O)N(C)CC3CCCN(C)C3)cc(NC(=O)c3ccccc3OC)c2n1C (stereo unspecified) -11.4%, FC(F)(F)c1cc(CN2CC[C@@]3(CCCNC3)C2)cc(C(F)(F)F)c1 -17.8%, O=C(O)Cc1cccc2ccccc12 -3.95% and -8.91%, COCC(=O)N1CCC2(CCCN(Cc3cc(C(F)(F)F)cc(C(F)(F)F)c3)C2)CC1 -35.3%, CC(C)[C@H](NC(=O)OCc1ccccc1)C(=O)N[C@H](C=O)Cc1ccccc1 (Cbz-Val-Phe-aldehyde) -0.583% and -58.1%, O=C(c1cnccn1)N1CCC2(CCN(Cc3nccs3)CC2)CC1 -7.81%, OC[C@H]1NC[C@@H](O)[C@@H]1O -33.5%, NC(=S)c1ccc[n+]([C@@H]2O[C@@H](COP(=O)([O-])OP(=O)(O)OC[C@H]3O[C@@H](n4cnc5c(N)ncnc54)[C@H](OP(=O)(O)O)[C@@H]3O)C(O)C2O)c1 (stereo partly specified) -34.4%, O=C(O)C[C@H]1c2ccccc2S(=O)(=O)N1c1ccccc1 -13.5%, CCCNC(C)(C)COC(=O)c1ccccc1 -6.9%, O=c1c(-c2ccc(F)cc2)nc2cnc(N3CCOCC3)nc2n1C1CC1 -4.69%, COCCn1c(=O)c(-c2ccc(F)cc2)nc2cnc(Oc3ccc(OC)cc3)nc21 0.482%, Cc1cccc(/C=C\c2ccccc2)n1 -11.9%, CCC1(C)CC(=O)NC1=O (stereo unspecified) -13.2% and 8.15% and -4.64%, CC(=O)Nc1ccc(OC(C)=O)cc1 -10.8%, CCOC(=O)/C=C1\CN(Cc2cc(OC)c(OC)c(OC)c2)S(=O)(=O)c2ccccc21 -10.4%, Cc1nc2c([nH]1)c(=O)n(C)c(=O)n2Cc1ccco1 -19.9% and -14%, O=C1C=CC2=C3c4cc(O)c(O)cc4CC3(O)COC2=C1O (stereo unspecified) -1.99% and -8.15%, CC(NCCc1ccc(O)cc1)C(O)c1ccc(O)cc1 (stereo unspecified) -5.47%, COc1ccc(NC(=O)N2CC[C@@]3(CCCN(C(=O)c4cnccn4)C3)C2)cc1 -8.57%, FC(F)(F)c1ccccc1-c1cncnc1NCc1cccnc1 5.46%, CC(C)C(=O)NC(C)c1nnc2n1CCN(Cc1cccc3ncccc13)CC2 (stereo unspecified) -6.55%, Cc1cnc(CNc2ncncc2-c2cccnc2)cn1 -4.06%, Cc1c(C(=O)NCCN2CCC(c3ccccc3)CC2)cnn1-c1nccc(-c2cccs2)n1 7.77%, CCNc1ncc2nc(-c3ccc(OC)cc3)c(=O)n(CCC#N)c2n1 7%, COc1ccc2[nH]cc(CCNc3ccnc(-c4ccccc4C(F)(F)F)n3)c2c1 6.13%, O=C(c1ccncc1)N1CCC2(CC1)CCN(c1cccc(-c3ccccc3)c1)CC2 -10%, O=C(Nc1cccc(F)c1)N1CCC2(CC1)CCN(C(=O)c1cc(C(F)(F)F)cc(C(F)(F)F)c1)CC2 -19.8%, CCc1nn(CCCN2CCN(c3cccc(Cl)c3)CC2)c(=O)n1CCOc1ccccc1 -34.6% and -34.2%, Cn1cc(-c2nc3cnc(Oc4ccccc4)nc3n(CCC#N)c2=O)c2ccccc21 -12%, Cc1ccccc1-c1cncnc1Nc1ccccc1 -0.0422%, CCNc1ncc2nc(-c3ccccc3)c(=O)n(Cc3ccc(F)cc3)c2n1 -6.84%, CN(C)CCCc1cc(C(=O)Nc2ccc(-c3ccncc3)cc2)ccc1O -6.52% and -24%, NC1[C@H]2CN(c3nc4c(cc3F)c(=O)c(C(=O)O)cn4-c3ccc(F)cc3F)C[C@@H]12 (stereo partly specified) 5.15%, CC(=O)OCC(=O)Nc1cc(C#N)cc(NC(=O)COC(C)=O)c1Cl -7.55%, Cc1noc(C)c1C(=O)N1CCC2(CCCN(c3ncccn3)C2)CC1 -9.41%, Cn1c(=O)c2c(nc(/C=C/c3cccc(Cl)c3)n2C)n(C)c1=O -14.6% and -40.8%, O=C(c1cccc(Cn2cccn2)c1)N1CCOc2c(cc(-c3csc4ccccc34)cc2OC2CCOC2)C1 (stereo unspecified) -3.16%, O=C(c1ccco1)N1CCC2(CCCN(c3ccccc3)C2)CC1 -14.4%, CCC[C@H]1COCCS(=O)(=O)N1Cc1ccc(F)cc1 -24.9%, Cc1c(C(=O)N(C)C2CCOC2)sc2ncnc(NCc3ccc4c(c3)OCO4)c12 (stereo unspecified) -6.46%, O=S(=O)(c1cccc2cnccc12)N1CCCNCC1 -7.66% and -21.6%, COc1cc2nc(N3CCCN(C)CC3)nc(NC3CCN(Cc4ccccc4)CC3)c2cc1OC -7.85%, O=c1[nH]/c(=C/c2ccc3c(c2)OCO3)c(=O)[nH]/c1=C/c1ccc2c(c1)OCO2 -18.9%, COc1ccc(CN2CCCC(c3nc(-c4ccncc4)ncc3-c3ccccc3)C2)cc1OC (stereo unspecified) 4.37%, CCC(C)(C)C(=O)O[C@H]1C[C@@H](C)C=C2C=C[C@H](C)[C@H](CC[C@@H]3C[C@@H](O)CC(=O)O3)[C@H]21 -8.54%, CC(C)[C@H]1COCCS(=O)(=O)N1Cc1ccccc1 -40.8%, CN(C)c1ccc(-c2cc(N(C)Cc3ccco3)ncn2)cc1 -3.89%, COc1ccc(C2Sc3ccccc3N(CCN(C)C)C(=O)C2OC(C)=O)cc1 (stereo unspecified) -4.06%, CCC(c1ccccc1)c1noc(CCN(CC)CC)n1 (stereo unspecified) 20.5%, CC(C)(C)CC(C)(C)N=C1Nc2ccc(Cl)cc2NC12C[C@H]1CCC(=O)N3CC[C@@H](C2)[C@@H]13 (stereo partly specified) -17.4%, CCCCS(=N)(=O)CCC(N)C(=O)O (stereo unspecified) -14.4% and -36%, CC(=O)O[C@H]1CC2(C)[C@@H](C[C@@H](O)[C@H]3[C@@]4(C)CC[C@@H](O)[C@@H](C)[C@@H]4CC[C@@]32C)C1=C(CCC=C(C)C)C(=O)O (stereo partly specified) -35.7%, COC(=O)C1CCCCN1Cc1ccc2c(c1)CN(C1CCSCC1)CCO2 (stereo unspecified) 1.8%, COc1cccc(OC)c1OCCNCC1CSc2ccccc2O1 (stereo unspecified) -20.1%, C[C@@H]1CN(c2c(F)c(F)c3c(=O)c(C(=O)O)cn(C4CC4)c3c2F)C[C@H](C)N1 8.93%, Cc1cc(=O)[nH]c2cc(N)ccc12 -12.6%, Cc1cnc(C(=O)NCc2c(C)ncc3c2CCN(C(=O)/C=C/c2cccs2)C3)cn1 3.19%, O=c1c(-c2cccs2)nc2cncnc2n1C1CC1 -16.6%, O=C(NCC1CCC2(CCN(Cc3cnn(-c4ccc(F)cc4)c3)CC2)O1)c1ccccc1 (stereo unspecified) 6.38%, O=C(Nc1ccccc1)C12CC1/C(=N\O)c1ccccc1O2 (stereo unspecified) -4.1%, CC(=O)Oc1ccc(C(c2ccc(OC(C)=O)cc2)c2ccccn2)cc1 -9.04% and -36.9%, CN(C)C(=O)COC(=O)Cc1ccc(OC(=O)c2ccc(N=C(N)N)cc2)cc1 3.81%, Cc1ncc2c(c1CNC(=O)/C=C/c1cccs1)CCN(C(=O)c1noc3c1CCCC3)C2 -5.35%, O=c1c(CCc2ccccc2)nc2cnc(Oc3ccccc3)nc2n1C1CC1 1.28%, O=[N+]([O-])c1ccc(O)c2ncccc12 11.4%, COc1cccc(CNC(=O)c2c(OC)cc(=O)n3c2CCN(C(=O)C2CC24CCCCC4)CC3)c1 (stereo unspecified) -1.78%, COc1cc(CNC(=O)CCCCCCC(C)C)ccc1O -3.86% and -86.5%
